PubChem BioAssay AID504832 (National Center for Advancing Translational Sciences (NCATS), 2011)
Values joined by “and” are separate entries in the source; they are usually repeats but may differ in a detail not shown here. Identical values can stand only once. Screen size: about 310,000 compounds; about 18,000 (5.8%) were called active. This list was built around the results that the source calls inconclusive (neither active nor inactive); the mix of calls is not that of the screen. Calls follow the shape of the dose curve; as a rule, active = well fitted inhibition curve with a large enough effect; inconclusive = small, poorly fitted or top-dose-only effect, or another doubt; inactive = no such curve, though single readings can be large or run the other way. Potencies of inconclusive entries are left out as doubtful fits.

Assay: Primary qHTS for delayed death inhibitors of the malarial parasite plastid, 48 hour incubation
Conditions: P. falciparum luciferase growth in erythrocytes; series mostly up to 28.7 µM
Method in brief: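 Erythrocytes infected with P. falciparum carrying an integrated firefly luciferase reporter (2% hematocrit, 0.1% parasitemia final) were exposed to compounds in RPMI 1640 with 0.5% Albumax at 37 C, 5% CO2. Growth inhibition was scored as reduced luminescence.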
Potency is read from the fitted curve at half-maximal effect; tags tell the direction and shape of the fitted curve.

SMILES	Potency
CCOc1ccc(NC(=O)CN(C)C(=O)C2CC(=O)N(c3ccc4c(c3)OCCO4)C2)cc1OCC (stereo unspecified)	inconclusive [inhibitor, full curve, poor fit]
Oc1c(I)cc(Cl)c2cccnc12	inconclusive [inhibitor, partial curve, poor fit]
NNC(=O)c1cccnc1Oc1ccccc1	inconclusive [inhibitor, full curve, poor fit]
O=C(OCC(=O)N1CCc2ccccc21)c1ccc(Cl)nc1	inactive
COc1ccc(S(=O)(=O)N2CCOC23CCN(S(=O)(=O)c2ccccc2)CC3)cc1	inconclusive [inhibitor, single point]
Cc1ccccc1OCC(=O)NC(=S)Nc1cccc2cc(O)ccc12	inactive
O=C(CSC(=S)N1CCOCC1)c1cc2ccccc2oc1=O	inconclusive [inhibitor, partial curve]
CN1CCN(Cc2nc3ccccc3n2C)CC1CCO (stereo unspecified)	inconclusive [inhibitor, full curve]
COc1ccc(N2CCN(C(CNS(=O)(=O)c3ccc4c(c3)OCCO4)c3ccco3)CC2)cc1 (stereo unspecified)	inconclusive [inhibitor, single point]
CC(=O)Oc1ccc(C2=NN(c3ccccc3)C(c3ccccc3)C2)cc1 (stereo unspecified)	active: 11.7 µM
O=[N+]([O-])c1ccccc1Oc1ccc(S(=O)(=O)N2CCOCC2)cc1	inconclusive [inhibitor, partial curve, poor fit]
CCOC(=O)C1(CCc2ccccc2)CCN(Cc2nccn2CC)CC1	inconclusive [inhibitor, single point]
NC(=O)CC(NC(=O)Cc1cccc2ccccc12)c1ccc(NCCc2ccc(F)cc2)c([N+](=O)[O-])c1 (stereo unspecified)	inconclusive [inhibitor, partial curve]
O=C(CSc1nnc(-c2ccccn2)o1)Nc1cccc(Cl)c1	inactive
COc1ccc(-c2nnc(NC(=O)CSc3ccc(C)cc3)s2)cc1OC	inactive
COc1cc(NC(=O)CSc2nncn2C)c(C)cc1[N+](=O)[O-]	inactive
CC(C)(C)C1CCC(C(=O)Nc2ccccc2N2CCOCC2)CC1 (stereo unspecified)	active: 9.28 µM
CCOC(=O)c1ccc(CNC(=O)Cn2nnc(-c3ccccc3F)n2)o1	inconclusive [inhibitor, partial curve, poor fit]
O=C(NCC1CCCO1)C(c1cccs1)N(Cc1ccccc1Cl)C(=O)c1ccc(-c2ccccc2)[nH]1 (stereo unspecified)	active: 5.22 µM
COc1cccc(NC(=O)CSc2nccn2-c2cccc(OC)c2)c1	inactive
CCOc1ccccc1OC(=O)c1cc2ccccc2oc1=O	inactive
Cc1nn(CCCC(=O)NCc2ccccc2)c(=O)c2nn(-c3ccccc3)c(C)c12	inconclusive [inhibitor, partial curve, poor fit]

SMILES	Potency
CCCn1c(NCc2ccccc2NS(=O)(=O)c2ccc(C)cc2)nc2ccccc21	inconclusive [inhibitor, single point]
Cn1cc(CN2CCc3sccc3C2)c(-c2ccccc2F)n1	inconclusive [inhibitor, single point]
COc1ccc(C2C(C(=O)NCc3ccccn3)c3ccccc3C(=O)N2C)cc1OC (stereo unspecified)	inconclusive [inhibitor, partial curve, poor fit]
Cn1c(=O)[nH]c(=O)c2c1nc(N1CCN(c3cccc(Cl)c3)CC1)n2CCCc1ccccc1	inactive
CCCN(CC(=O)Nc1ccccc1C)C(=O)c1ccc(S(=O)(=O)N2CCCCCC2)cc1	inconclusive [inhibitor, partial curve, poor fit]
Cc1cccc(NC(=O)c2ccc(-c3ccccc3[N+](=O)[O-])o2)c1	inactive
CCCN(CCC)CC(O)Cn1cc(/C=C/C(=O)c2cccs2)c2ccccc21 (stereo unspecified)	active: 7.38 µM
Cc1[nH][nH]c(=O)c1C(c1ccc(-c2ccc(Cl)cc2)o1)c1c(C)[nH][nH]c1=O	inconclusive [inhibitor, single point]
O=C(c1ccc(Cl)cc1)C1CCCN(Cc2cccc3ncccc23)C1 (stereo unspecified)	inconclusive [inhibitor, full curve, poor fit]
CCOC(=O)CN1C(=O)C(C)(C)Oc2ccc(C(=O)Nc3ccccc3)cc21	inconclusive [inhibitor, partial curve]
CNC(=O)/C=C1\NC(C)(C)Cc2c1ccc1ccccc21	inconclusive [inhibitor, single point]
O=C(C1CC1)N1CCc2cc(S(=O)(=O)N3CCCc4ccccc43)ccc21	inconclusive [inhibitor, single point]
O=[N+]([O-])c1ccc2[nH]cc(S(=O)(=O)N3CCN(c4cccc(Cl)c4)CC3)c2c1	inconclusive [inhibitor, single point]
COc1ccc(-c2cccc([C@H]3[C@@H]4C=CCC[C@@]4(C)C(=O)N3Cc3ccccc3)c2)cc1	inconclusive [inhibitor, partial curve]
Cc1nnc(SCCC(=O)Nc2ccccc2Cl)o1	inactive
Cc1nn(C)c(Oc2ccccc2)c1CCNS(=O)(=O)c1ccccc1	inconclusive [inhibitor, single point]
Cc1ccc(C(=O)Cn2nnc(-c3ccccc3-n3cnnn3)n2)cc1	inconclusive [inhibitor, single point]
C/C(=N\NC(=O)c1cc(C2CC2)nc2ccccc12)c1ccc(O)cc1O	inconclusive [inhibitor, single point]
COc1ccc(NS(=O)(=O)c2cccc(C(=O)N/N=C/c3cn(-c4ccccc4)nc3-c3ccccc3)c2)cc1	inconclusive [inhibitor, partial curve]
COc1cc(NS(=O)(=O)c2ccc(NC(=O)c3ccc(S(=O)(=O)N4CCCCC4)cc3)cc2)ncn1	inconclusive [inhibitor, partial curve]
COc1cccc(C(C(=O)NC2CCCC2)N(C(=O)c2ccco2)c2ccc(C(C)=O)cc2)c1OC (stereo unspecified)	inconclusive [inhibitor, partial curve, poor fit]
CC(C)NC[C@@H](O)COc1cccc2ccccc12	active: 15.1 µM and active: 9.28 µM

SMILES	Potency
N#CC(C#N)=c1ccc2c(c1)NC1(CCCCC1)N=2	inconclusive [inhibitor, single point]
CC(/C=N/Nc1ccc2nncn2n1)=C\c1ccccc1	inconclusive [inhibitor, partial curve, poor fit]
CCc1nc(NCCc2ccccn2)c2nnn(Cc3ccccc3F)c2n1	inconclusive [inhibitor, single point]
O=C1CCC(c2ccccc2)N1C(=O)c1cccnc1 (stereo unspecified)	inconclusive [inhibitor, single point]
COc1ccc(-c2cc(C(F)(F)F)nc(N3CCN(Cc4ccccc4)CC3)n2)cc1OC	active: 10.4 µM
Cc1cc2ccccn2c1C(=O)c1ccc(NN)c([N+](=O)[O-])c1	inconclusive [inhibitor, partial curve]
Clc1ccc(-c2nc3ccc(Cl)cn3c2CN2CCOCC2)cc1	inconclusive [inhibitor, partial curve]
COc1cccc(CNC(=O)C(=O)NCC2OCCCN2S(=O)(=O)c2cc(C)ccc2C)c1 (stereo unspecified)	inconclusive [inhibitor, partial curve]
Cc1ccccc1NC(=O)Cc1nnc(SCC(=O)NC2=NCCS2)n1C	inactive
CCOc1ccccc1-c1nc(C(N)=O)c2[nH]c(=O)n(-c3ccccc3)c2n1	inconclusive [inhibitor, partial curve, poor fit]
O=C1c2ccccc2CN1C(CO)Cc1ccccc1 (stereo unspecified)	inactive
COc1ccc(Br)cc1CN1CCN(C(=O)c2cccc(OC)c2OC)CC1	inconclusive [inhibitor, single point]
CCCCc1cc(=O)oc2cc(C)cc(OCC(=O)N3CCC(C(=O)O)(c4ccccc4)CC3)c12	inconclusive [inhibitor, partial curve]
O=Cc1c(Sc2ccccn2)nc2ccccn2c1=O	inconclusive [inhibitor, single point]
Cc1cc(=O)oc2c(C)c(OC(C)C(=O)NC3CCN(Cc4ccccc4)CC3)ccc12 (stereo unspecified)	inconclusive [inhibitor, partial curve]
COc1ccc(CN2C(=O)CCC2(C)C(=O)NC2CCCCCC2)cc1 (stereo unspecified)	inconclusive [inhibitor, partial curve, poor fit]
Cc1ccc(S(=O)(=O)c2nc(-c3ccccc3)oc2N2CCC(C(N)=O)CC2)cc1	inconclusive [inhibitor, single point]
Cc1cc(C)cc(N2C(N)=NC(N)=NC2c2ccccc2F)c1 (stereo unspecified)	active: 3.29 µM
O=C(O)CC(NC(=O)Cc1ccc([N+](=O)[O-])cc1)c1ccc2c(c1)OCO2 (stereo unspecified)	inactive
CC/C=C\[C@H](O)[C@H](O)C1=C(C)C(=O)[C@]2(O1)C(=O)N[C@@](OC)(C(=O)c1ccccc1)C2O (stereo partly specified)	inactive
CCC(C)NC(=O)C1CCC(CNS(=O)(=O)c2cccc3nsnc23)CC1 (stereo unspecified)	inactive
CC(C)OCCCN1C(=O)c2[nH]nc(-c3ccccc3O)c2C1c1cccc(Cl)c1 (stereo unspecified)	active: 4.15 µM
